# From the supplement of paper PMC3334620
# In all, about 33,000 sequences were measured (“E-score (-0.5 to 0.5)”: median about -0.011, highest 2% from about 0.28 on). The list shows a part of the results.
# Molecular target: T1, Gcr1 (UniProt P07261)
# T1 sequence: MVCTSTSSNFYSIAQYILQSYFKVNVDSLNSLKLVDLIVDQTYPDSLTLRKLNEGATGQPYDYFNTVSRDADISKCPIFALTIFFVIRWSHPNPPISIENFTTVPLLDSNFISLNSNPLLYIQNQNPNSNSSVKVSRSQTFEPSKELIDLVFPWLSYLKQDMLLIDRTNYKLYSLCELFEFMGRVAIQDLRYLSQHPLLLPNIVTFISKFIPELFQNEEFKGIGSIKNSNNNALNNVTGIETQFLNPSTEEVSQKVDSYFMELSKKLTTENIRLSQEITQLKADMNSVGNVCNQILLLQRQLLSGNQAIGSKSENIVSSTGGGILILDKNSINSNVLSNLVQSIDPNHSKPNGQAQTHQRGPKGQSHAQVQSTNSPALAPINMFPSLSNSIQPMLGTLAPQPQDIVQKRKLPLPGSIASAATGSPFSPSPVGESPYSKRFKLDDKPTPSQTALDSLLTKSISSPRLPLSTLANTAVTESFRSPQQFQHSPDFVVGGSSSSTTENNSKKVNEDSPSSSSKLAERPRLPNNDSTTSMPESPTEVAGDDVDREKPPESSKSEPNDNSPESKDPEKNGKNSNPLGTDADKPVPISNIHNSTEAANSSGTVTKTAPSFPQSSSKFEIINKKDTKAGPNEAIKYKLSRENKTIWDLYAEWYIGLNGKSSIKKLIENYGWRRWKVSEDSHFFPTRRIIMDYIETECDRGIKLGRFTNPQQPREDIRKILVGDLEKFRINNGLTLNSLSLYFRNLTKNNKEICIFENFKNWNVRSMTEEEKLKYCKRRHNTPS
# Test: PBM E-score (8-mer binding enrichment) (E-score (-0.5 to 0.5)); higher = stronger / more preferred TF binding; most listed sequences are background and not binding sites
# Settings: protein concentration: 100 nM; construct: GST-full length
# How it was run: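 Universal all-10-mer Agilent arrays, double-stranded by primer extension on fresh or once-stripped slides, were probed with about 100-200 nM GST-tagged yeast transcription factors made by PURExpress. Fluorescent anti-GST detected bound protein, and masliner normalised the scans. E-scores from the Universal PBM Analysis Suite were given to each ungapped eight-base word pooled with its reverse complement.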
row,Sequence,PBM E-score
1,GACGTAAA,-0.0595
2,GCCTGCGC,-0.156
3,ACACCGGA,0.0649
4,GATAAGAC,0.0907
5,GTAACCAA,0.00968
6,ACTTTCAA,0.139
7,ACGCGGCT,0.129
8,AGCTACAT,-0.0377
9,CGAAAATC,-0.0439
10,TATCGTCA,0.0934
11,ACTTCGTG,0.0522
12,CCATTCTA,0.118
13,AGTACCTG,0.108
14,CTTCGGGA,0.0898
15,CCGCGTGA,0.201
16,TCAAGCAA,-0.0274
17,AGCCGACG,-0.0123
18,CATTGCCA,-0.169
19,CCACTCCA,0.137
20,CGAGATCA,0.0628
21,GATAAGTA,0.103
22,CCCGTCCA,-0.0559
23,AGACCTCG,-0.0204
24,ACCTGTAC,0.0266
25,ATTCCAGG,0.097

row,Sequence,PBM E-score
1,AACCCCAA,0.00228
2,AAGCGATT,0.0501
3,CCATAGTC,-0.0493
4,GAATGGTC,-0.197
5,ACAATGGT,-0.271
6,CCAGGGTC,-0.00981
7,AGGCTGTC,-0.11
8,TACGGCAA,0.0989
9,CCTGACAA,-0.0463
10,CGAACGAC,-0.134
11,GATCCGCA,0.0939
12,CCCGCATC,0.198
13,TCTCGCAA,-0.00232
14,TCTGATCA,-0.0577
15,GAGGGCTA,-0.259
16,GAGCATCA,-0.0695
17,AGTAAGCA,-0.21
18,CAACCTTC,-0.0142
19,GCTTTTCC,-0.238
20,CTATGCGC,-0.0813
21,AGCTCCTA,-0.0934
22,GGTGCTGA,0.335
23,AAAAATAG,0.175
24,AATGGTAC,0.138
25,ACATCCAC,0.133

row,Sequence,PBM E-score
1,AGCCGTCC,-0.162
2,AAAGTACA,0.0394
3,ACTTTGAT,-0.123
4,GAGTGTTA,-0.102
5,CGACGCGA,-0.0131
6,GGCATCCC,0.4
7,GGCTCAGA,-0.0689
8,ACCGGATG,0.349
9,AGGATGAT,0.105
10,GGCACTAA,0.158
11,ACGGTGCT,0.178
12,CGGCAAGA,-0.131
13,CCGGGTCG,-0.0758
14,GTCGTAGA,-0.0298
15,AGCCCCCT,-0.149
16,CCACGCCA,-0.0641
17,GCTGGTAC,-0.0354
18,ACGCGGAC,-0.0778
19,CTTGTAGC,0.195
20,AGCCCACT,0.165
21,ACCCGATA,-0.0855
22,CGGCGCGA,0.027
23,CGTGGTGA,-0.09
24,CCACACAA,0.191
25,ACTAGCAA,-0.00147

row,Sequence,PBM E-score
1,CATCCAGA,0.268
2,ATCTTGCG,0.0481
3,ATGCTCAA,-0.0746
4,CACGTTTC,-0.0686
5,ATCACTGG,0.137
6,GGATGTCA,0.233
7,CTCTGCTA,-0.0408
8,CCGTGAGA,-0.184
9,ACGCAGTA,-0.138
10,CCTACCAC,-0.0755
11,ATAGCGGG,0.156
12,CATCATAG,0.00201
13,CAGTCGCG,-0.104
14,GGACACAA,-0.042
15,CACGGAAC,0.0756
16,AGAAAGGC,0.0556
17,CGTATAGA,0.0615
18,TCTAGCAA,-0.0854
19,CGTCCTTC,-0.0255
20,GCATCTAA,0.303
21,ACTTAGTC,-0.278
22,ATGGGAAC,0.0822
23,ATTCCGAA,0.147
24,CCCTATCG,-0.00206
25,ATAAAGAT,0.135

row,Sequence,PBM E-score
1,ACTTAGAC,0.00479
2,GCCCTACA,-0.119
3,AGCTTGTA,0.12
4,GGAGAGAC,-0.0279
5,TCGTAGCA,-0.018
6,GTGTTAAC,0.0195
7,CGCCCACC,0.00485
8,TATAGTGA,-0.263
9,ACTTAAAT,0.129
10,ACTGTAAG,0.0493
11,TAGTCCCA,-0.269
12,ACTAGAAA,0.0694
13,AACCCAAC,0.116
14,GATTCCTA,0.439
15,ATGAAGCA,-0.19
16,ACTTTGAC,0.0912
17,GTTCATGA,-0.0786
18,CTCAATAC,-0.00463
19,AGAGATGA,-0.0147
20,AGCAGAAA,0.0713
21,ATGCTCAG,0.16
22,CATTAGCG,0.0994
23,AGCGCATG,-0.0716
24,ACAAACAC,0.135
25,GTTGCTGA,0.0955

row,Sequence,PBM E-score
1,CCTTTTCC,-0.103
2,AGGGATAC,0.0126
3,AACCAGCG,0.00077
4,CATCAACC,-0.0283
5,CATTTTGC,-0.188
6,GGTCAACA,-0.205
7,GGTGATGA,0.0597
8,CAACACCA,-0.00356
9,TACGAGCA,-0.084
10,AAACGAAC,-0.0756
11,CGCTACCA,0.182
12,GGAGATGA,-0.243
13,ATATTCTA,0.0278
14,TAGTGATA,0.0388
15,CTACTTCC,0.0906
16,AAATGGGC,0.0949
17,CGAGGTAC,-0.00307
18,GGACCAAC,-0.16
19,TAGCTTCA,0.0672
20,CGACATGA,0.119
21,AGCTGACG,-0.103
22,CTTCATTA,-0.0603
23,GTCAGGTA,0.091
24,ATAGAGCA,-0.0362
25,CGTAAACA,-0.0146

row,Sequence,PBM E-score
1,GTATGTGA,0.0541
2,CTGTCCTC,-0.108
3,GACGTAGC,0.0787
4,ACGCTACG,-0.0913
5,CATATGTA,0.0562
6,AAACATTG,0.102
7,AGTCGAGC,-0.0406
8,AGTAATTC,0.176
9,AGAGAATA,-0.127
10,GGCACCTA,0.281
11,AGCATCTA,0.319
12,CACATCGG,-0.0866
13,AACATCGG,-0.136
14,AATAAGGG,-0.0652
15,CTATCCAA,-0.0753
16,ACACCCAG,-0.139
17,TCCCTTCA,-0.0396
18,CGAATCCA,0.215
19,ATTTAAGC,0.223
20,GTGCATTA,-0.0893
21,GCAGCCTA,0.21
22,TGTATACA,-0.27
